About 6,200 (6.6%) of roughly 94,000 compounds were called active. Inconclusive means that the source gave no clear call. Such entries were picked first, then a sample of the others. Calls come from the whole dose curve; as a rule, active = well fitted inhibition curve with a large enough effect; inconclusive = small, poorly fitted or top-dose-only effect; inactive = flat fitted curve, though single readings scatter. Potencies of inconclusive entries are doubtful fits and often do not repeat.
assay: Cytotoxic Profiling in HEK 293 Cell Line of Diverse Libraries Using Quantitative High-Throughput Screening; details: HEK 293 viability, ATP luminescence (CellTiter-Glo), 48-72 h; activity change, negative = cytotoxicity: at 115 µM (top of the series) unless noted; series mostly up to 115 µM; note: nearly all actives have a fitted effect of over 60% in size
Outline: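 HEK 293 cells seeded at 250 cells/well were exposed to compound for 48 or 72 hr at 37 degree Celsius. Viability taken as ATP content by CellTiter-Glo luminescence.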
% is set by controls: 0 for no effect and ±100 for the full control effect; potency is the fitted concentration of half-maximal effect; tags give direction and shape of the fitted curve.

Structure (SMILES)	activity change, negative = cytotoxicity	Potency	outcome
O=C(CCc1ccccc1)N1CCC(c2n[nH]c(=O)n2Cc2ccc(F)cc2)CC1	inactive: -5.91%	–	–
Cc1cc(F)cc(CN2CCOCC3(C2)CN([S+](=O)([O-])c2ccccc2)C3)c1	–	inconclusive: 89.1 µM [inhibitor, partial curve]	–
CCn1cnnc1-c1nn(C)c2c1CN(C(=O)C(C)c1ccccc1)CC2 (stereo not drawn)	–	–	inactive
CCc1cc(N2CCC3(CC2)CC(c2ccccc2)C(=O)N3C)nc(C)n1 (stereo not drawn)	–	inconclusive: 10 µM [inhibitor, full curve, poor fit]	–
CC1=C[C@@H](CNC(=O)CCC(=O)O)[C@H](C(C)C)C[C@H]1CC(=O)NCc1cccnc1	inactive: -8.59% [at 172 µM]	–	–
CCc1nncn1C1CCN(S(=O)(=O)c2cc(OC)ccc2OC)CC1	inactive: 1.05%	–	–
O=C(NC1CCCC1)c1csc(N2CCN(c3cccc(Cl)c3)CC2)n1	–	active: 35.5 µM	–
CN(Cc1ccccc1)C1CCOC2(CCN(C(=O)NCc3ccc(F)cc3)CC2)C1 (stereo not drawn)	inactive: -23.5%	–	–
CCC(=O)N(C1CCOCC1)C1CCN(S(=O)(=O)c2c(C)nn(C)c2C)CC1	inactive: 5.9%	–	–
CC(=O)NCCC1CCCCN1Cc1nc(C2(c3ccc(C)cc3)CCCC2)no1 (stereo not drawn)	–	inconclusive: 79.4 µM [inhibitor, partial curve, poor fit]	–
O=C(O)CCNC(=O)Cn1nc2c(cc1=O)CCCCC2	inactive: 7.02%	–	–
CCC1Oc2ccc(NC(=O)c3ccc(F)cc3F)cc2CN(Cc2ccc(Cl)cc2)C1=O (stereo not drawn)	–	inconclusive: 28.2 µM [inhibitor, partial curve]	–
COC1CCOC2(CCN(C(=O)c3cc(C)nn3C)CC2)C1 (stereo not drawn)	inactive: -10.2%	–	–
Cc1ccc(-c2cn3c(n2)N(C(=O)c2sc(C)nc2C)CCC3)cc1	inactive: -8.47%	–	–
COc1cccc(CNC(=O)c2ccc3nnc(-c4c(C)cccc4C)n3c2)c1	inactive: -6.5%	–	–
COc1ccc(-n2nc3n(c2=O)CCN(C(=O)c2ccc(Cl)cc2)C3)cc1	–	inconclusive: 89.1 µM [inhibitor, partial curve, poor fit]	–
CCOC(=O)C1(Cc2ccccc2F)CCCN(C(=O)CN2CCOC2=O)C1 (stereo not drawn)	inactive: -14.2%	–	–
O=C(Cc1ccc2c(c1)OCO2)N[C@H]1[C@@H]2CCO[C@@H]2[C@@H]1C1CCCC1	–	inconclusive: 89.1 µM [inhibitor, partial curve, poor fit]	–
O=C(NC[C@H]1Cn2c(-c3ccccc3)cnc2CO1)c1cnccn1	–	inconclusive: 100 µM [inhibitor, partial curve]	–
Cc1ccc(C(=O)N2CCc3nc(OCC4CC4)ccc3C2)cn1	–	inconclusive: 79.4 µM [inhibitor, single point]	–
O=C(c1ccc(F)c(Cl)c1)N1CCC2(CC1)CN(C1CCC1)CC2CO (stereo not drawn)	–	inconclusive: 50.1 µM [inhibitor, partial curve, poor fit]	–
COc1cccc(N2CCN(C(=O)C3CCCN(Cc4cccnc4)CCC(=O)NCC3)CC2)c1 (stereo not drawn)	–	inconclusive: 56.2 µM [inhibitor, partial curve, poor fit]	–

Structure (SMILES)	activity change, negative = cytotoxicity	Potency	outcome
CN1[C@@H](CCC(=O)N2CCc3ccccc32)CNC(=O)[C@@H]2[C@H]1CCN2CC(C)(C)C	–	inconclusive: 126 µM [inhibitor, single point]	–
Cc1cc(Cl)ccc1-c1cccc(CN)c1	–	active: 39.8 µM	–
CCC1Oc2ccc(NC(=O)c3cccs3)cc2CN(Cc2ccc(F)cc2)C1=O (stereo not drawn)	–	inconclusive: 50.1 µM [inhibitor, partial curve, poor fit]	–
COc1cccc(CN2CC[C@@H](CO)N(C)c3nc(C)ccc3C2)c1	–	inconclusive: 89.1 µM [inhibitor, partial curve]	–
COc1cccc(N2C(=O)NC(=NC3CCCCC3)C23CCN([S+](=O)([O-])c2ccccc2)C3)c1 (stereo not drawn)	–	–	inactive
O=C(CCc1ccc(-c2ccc(Cl)cc2)[nH]1)N1CC[C@H](CO)[C@H](O)C1	–	inconclusive: 44.7 µM [inhibitor, partial curve, poor fit]	–
Cn1cccc1CN1C[C@@H](CO)[C@H](NC(=O)c2ccccc2)C1	inactive: -16.4%	–	–
COc1cccc(C(=O)NC2CCN(c3cc(-c4cccs4)[nH]n3)CC2)c1OC	–	inconclusive: 44.7 µM [inhibitor, partial curve]	–
COc1ccc(-c2ccccc2C(=O)N2CCOCC2)nn1	inactive: 0.709% [at 172 µM]	–	–
CCc1nnc2ccc(NCc3ccc(F)cc3)nn12	–	inconclusive: 50.1 µM [inhibitor, partial curve, poor fit]	–
O=C(C1CC1)N1CCOc2ccc(CN3CCc4ccccc4C3)cc2C1	–	active: 39.8 µM	–
COc1cc(-c2nc(-c3c(C)noc3C)cc3c2cc(C)n3C)ccn1	–	inconclusive: 39.8 µM [inhibitor, partial curve, poor fit]	–
O=C(CCc1ccccc1)Nc1cnc(-c2cccnc2)nc1	–	inconclusive: 79.4 µM [inhibitor, partial curve, poor fit]	–
Cn1cc(C(=O)NCC2CN(Cc3cccc(OC(F)(F)F)c3)CC23CN(c2ccccc2)C3)cn1 (stereo not drawn)	–	inconclusive: 50.1 µM [inhibitor, partial curve, poor fit]	–
CC1=C[C@@H](CNC(=O)COc2ccccc2)[C@H](C(C)C)C[C@H]1CC(=O)NCc1cccnc1	–	inconclusive: 50.1 µM [inhibitor, partial curve, poor fit]	–
O=C(c1ccc2c(c1)OC(F)(F)O2)N1CC2(Cc3ccccc3NC2=O)C1	–	inconclusive: 56.2 µM [inhibitor, partial curve, poor fit]	–
O=C(c1cc2cc(F)ccc2[nH]1)N1CCCC(CO)(Cc2cccc(Cl)c2)C1 (stereo not drawn)	–	active: 79.4 µM	–
CC(C)N1CC(C(=O)NCCc2cccc(F)c2)NC1=O (stereo not drawn)	–	inconclusive: 126 µM [inhibitor, partial curve, poor fit]	–
F[C@@H]1CN(CC2CC2)C[C@@H]1OCc1nc2ccccc2o1	inactive: -9.66% [at 230 µM]	–	–
Cc1ccc(S(=O)(=O)Nc2nc3c(s2)C[C@]2(C)CC[C@@H]4[C@H](OC(=O)[C@H]4C)[C@H]2[C@@H]3C)cc1	inactive: -21.2%	–	–
COC[C@H]1CCCN1Cc1cn(-c2ccccc2C)nc1-c1ccc(OC)c(F)c1	–	inconclusive: 79.4 µM [inhibitor, partial curve, poor fit]	–

Source: PubChem BioAssay AID1345083 (National Center for Advancing Translational Sciences (NCATS), 2018)
